Source: US5175146A, “Synthetic calcitonin peptides” (Vical, Inc., priority 1990, dated 1992)
Values joined by “and” are separate entries in the source; they are usually repeats but may differ in a detail not shown here. Equal values may be shown once. At least one peptide structure holds a part that was inferred or is arguable (an end, a ring closure or a residue). Starred links: 1 amine or outer side, 2 acyl side, 3 side chain; linkers in the order of their positions; H or OH if unused. Positions of bridges follow the written chain, without caps; N, C: chain ends. Residues, ends and D or L forms follow the SMILES beside them. Chains are numbered I, II in the order given. Suc = O=C(CCC(=O)[*:2])[*:1]

Legend:
[1] = test system: Male rats (Sprague Dawley); assay: Hypocalcemic activity: serum Ca++ decrease in rats after subcutaneous injection; type: in vivo; settings: rat serum
Experimental: Calcitonins lower the blood calcium of immature rats by inhibiting bone resorption. Their potency can be assessed by determining the micrograms of peptide required to reduce the serum calcium by ten percent. The results of in vivo tests of the biological activities of synthetic calcitonin peptides of the invention are shown in Example 37.
This activity was measured as follows: Male rats (Sprague Dawley) weighing approximately 100 grams were fasted overnight. Peptides according to the invention, comprising various potency-enhancing modifications, were dissolved in pH 7.4 PBS buffer at a concentration range of 0.001 microgram to about 100 microgram per ml. The rats were anesthetized with Metophane10, weighed and injected subcutaneously with the peptide solutions in a dose of from 0.001 to about 100 microgram per kilogram of body weight. […] Calcium-lowering potencies of the synthetic peptides can be calculated in International units (IU) per mg as described by the method of M. Kumar et al., J. Endocrinology 33:469-475 (1964). According to this test, 10 IU is defined as the amount of peptide necessary for lowering Ca++ concentration by 10% in 100 gram rats one hour after subcutaneous injection. Serum Ca++ levels in the rat after subcutaneous injection of various peptides are summarized below: […]

[2] = cited from earlier work

| SMILES | Ca++ Decrease ([1]; dose 0.01 ug/kg s.c., 1 hr) [mg/dL] | Ca++ Decrease ([1]; dose 0.03 ug/kg s.c., 1 hr) [mg/dL] | Ca++ Decrease ([1]; dose 0.1 ug/kg s.c., 1 hr) [mg/dL] | Ca++ Decrease ([1]; dose 0.32 ug/kg s.c., 1 hr) [mg/dL] | Ca++ Decrease ([1]; dose 1 ug/kg s.c., 1 hr) [mg/dL] | time the calcitonin remains potent after administration [2] | Ca++ Decrease ([1]; dose 0.3 ug/kg s.c., 1 hr) [mg/dL] | Ca++ Decrease ([1]; dose 3 ug/kg s.c., 1 hr) [mg/dL] | Ca++ Decrease ([1]; dose 10 ug/kg s.c., 1 hr) | Ca++ Decrease ([1]; dose 10 ug/kg s.c., 6 hr) [mg/dL] | Ca++ Decrease ([1]; dose 10 ug/kg s.c., 3 hr) [mg/dL] |
| --- | --- | --- | --- | --- | --- | --- | --- | --- | --- | --- | --- |
| CC(C)C[C@H](NC(=O)[C@H](CC(C)C)NC(=O)[C@@H]1CCCCNC(=O)CCC(=O)N[C@@H](CO)C(=O)N[C@@H](CC(N)=O)C(=O)N[C@@H](CC(C)C)C(=O)N[C@@H](CO)C(=O)N[C@@H]([C@@H](C)O)C(=O)N1)C(=O)NCC(=O)N[C@@H](CCCCN)C(=O)N[C@@H](CC(C)C)C(=O)N[C@@H](CO)C(=O)N[C@@H](CCC(N)=O)C(=O)N[C@@H](CCC(=O)O)C(=O)N[C@@H](CC(C)C)C(=O)N[C@@H](Cc1c[nH]cn1)C(=O)N[C@@H](CCCCN)C(=O)N[C@@H](CC(C)C)C(=O)N[C@@H](CCC(N)=O)C(=O)N[C@H](C(=O)N[C@@H](Cc1ccc(O)cc1)C(=O)N1CCC[C@H]1C(=O)N[C@@H](CCCNC(=N)N)C(=O)N[C@H](C(=O)N[C@@H](CC(=O)O)C(=O)N[C@H](C(=O)NCC(=O)N[C@@H](C)C(=O)NCC(=O)N[C@H](C(=O)N1CCC[C@H]1C(N)=O)[C@@H](C)O)C(C)C)[C@@H](C)O)[C@@H](C)O (SNLSTKLLGKLSQELHKLQTYPRTDVGAGTP-NH2; linker N-6 via Suc) | 0.05 | 0.17 | 1.48 | 2.68 | – | – | – | – | – | – | – |
| CC(C)C[C@H](NC(=O)[C@H](CC(C)C)NC(=O)[C@@H]1CSSC[C@H](N)C(=O)N[C@@H](CO)C(=O)N[C@@H](CC(N)=O)C(=O)N[C@@H](CC(C)C)C(=O)N[C@@H](CO)C(=O)N[C@@H]([C@@H](C)O)C(=O)N1)C(=O)NCC(=O)N[C@@H](CCCCN)C(=O)N[C@@H](CC(C)C)C(=O)N[C@@H](CO)C(=O)N[C@@H](CCC(N)=O)C(=O)N[C@@H](CCC(=O)O)C(=O)N[C@@H](CC(C)C)C(=O)N[C@@H](Cc1c[nH]cn1)C(=O)N[C@@H](CCCCN)C(=O)N[C@@H](CC(C)C)C(=O)N[C@@H](CCC(N)=O)C(=O)N[C@H](C(=O)N[C@@H](Cc1ccc(O)cc1)C(=O)N1CCC[C@H]1C(=O)N[C@@H](CCCNC(=N)N)C(=O)N[C@H](C(=O)N[C@@H](CC(=O)O)C(=O)N[C@H](C(=O)NCC(=O)N[C@@H](C)C(=O)NCC(=O)N[C@H](C(=O)N1CCC[C@H]1C(N)=O)[C@@H](C)O)C(C)C)[C@@H](C)O)[C@@H](C)O [(Leu^8)-eCT] (H-CSNLSTCLLGKLSQELHKLQTYPRTDVGAGTP-NH2; disulfide 1-7) | 0.15 | – | 1.82 | 1.02 | 2.90 | – | – | – | – | – | – |
| CC(C)C[C@H](NC(=O)[C@H](CCCCN)NC(=O)CNC(=O)[C@H](CC(C)C)NC(=O)[C@@H](NC(=O)[C@@H]1CSSC[C@H](N)C(=O)N[C@@H](C)C(=O)N[C@@H](CO)C(=O)N[C@@H](CC(C)C)C(=O)N[C@@H](CO)C(=O)N[C@@H]([C@@H](C)O)C(=O)N1)C(C)C)C(=O)N[C@@H](CO)C(=O)N[C@@H](CCC(N)=O)C(=O)N[C@@H](CCC(=O)O)C(=O)N[C@@H](CC(C)C)C(=O)N[C@@H](Cc1c[nH]cn1)C(=O)N[C@@H](CCCCN)C(=O)N[C@@H](CC(C)C)C(=O)N[C@@H](CCC(N)=O)C(=O)N[C@H](C(=O)N[C@@H](Cc1ccc(O)cc1)C(=O)N1CCC[C@H]1C(=O)N[C@@H](CCCNC(=N)N)C(=O)N[C@H](C(=O)N[C@@H](CC(=O)O)C(=O)N[C@H](C(=O)NCC(=O)N[C@@H](C)C(=O)NCC(=O)N[C@H](C(=O)N1CCC[C@H]1C(N)=O)[C@@H](C)O)C(C)C)[C@@H](C)O)[C@@H](C)O [Avian CT, chicken calcitonin, reference compound] (H-CASLSTCVLGKLSQELHKLQTYPRTDVGAGTP-NH2; disulfide 1-7) | 0.18 | 0.22 | 1.39 | 2.76 | – | – | – | – | – | – | – |
| CC(C)C[C@H](NC(=O)[C@H](CCCCN)NC(=O)CNC(=O)[C@H](CC(C)C)NC(=O)[C@@H](NC(=O)[C@@H]1CSSC[C@H](N)C(=O)N[C@@H](CO)C(=O)N[C@@H](CC(N)=O)C(=O)N[C@@H](CC(C)C)C(=O)N[C@@H](CO)C(=O)N[C@@H]([C@@H](C)O)C(=O)N1)C(C)C)C(=O)N[C@@H](CO)C(=O)N[C@@H](CCC(N)=O)C(=O)N[C@@H](CCC(=O)O)C(=O)N[C@@H](CC(C)C)C(=O)N[C@@H](Cc1c[nH]cn1)C(=O)N[C@@H](CCCCN)C(=O)N[C@@H](CC(C)C)C(=O)N[C@@H](CCC(N)=O)C(=O)N[C@H](C(=O)N[C@@H](Cc1ccc(O)cc1)C(=O)N1CCC[C@H]1C(=O)N[C@@H](CCCNC(=N)N)C(=O)N[C@H](C(=O)N[C@@H](CC(N)=O)C(=O)N[C@H](C(=O)NCC(=O)N[C@@H](CO)C(=O)NCC(=O)N[C@H](C(=O)N1CCC[C@H]1C(N)=O)[C@@H](C)O)[C@@H](C)O)[C@@H](C)O)[C@@H](C)O [Salmon CT, salmon calcitonin, reference compound] | 0.82 | 1.52 | 2.40 | – | – | about six | – | – | – | – | – |
| CC(C)C[C@H](NC(=O)[C@H](CC(C)C)NC(=O)[C@H](CCCCNC(=O)[C@@H](NC(=O)[C@H](CO)NC(=O)[C@H](CC(C)C)NC(=O)[C@H](CC(N)=O)NC(=O)[C@H](CO)NC(=O)[C@H](C)NC(=O)[C@@H](N)CC(C)C)[C@@H](C)O)NC(=O)[C@@H](NC(=O)[C@H](CO)NC(=O)[C@H](CC(C)C)NC(=O)[C@H](CC(N)=O)NC(=O)[C@H](CO)NC(=O)[C@H](C)NC(=O)[C@@H](N)CC(C)C)[C@@H](C)O)C(=O)NCC(=O)N[C@@H](CCCCN)C(=O)N[C@@H](CC(C)C)C(=O)N[C@@H](CO)C(=O)N[C@@H](CCC(N)=O)C(=O)N[C@@H](CCC(=O)O)C(=O)N[C@@H](CC(C)C)C(=O)N[C@@H](Cc1c[nH]cn1)C(=O)N[C@@H](CCCCN)C(=O)N[C@@H](CC(C)C)C(=O)N[C@@H](CCC(N)=O)C(=O)N[C@H](C(=O)N[C@@H](Cc1ccc(O)cc1)C(=O)N1CCC[C@H]1C(=O)N[C@@H](CCCNC(=N)N)C(=O)N[C@H](C(=O)N[C@@H](CC(=O)O)C(=O)N[C@H](C(=O)NCC(=O)N[C@@H](C)C(=O)NCC(=O)N[C@H](C(=O)N1CCC[C@H]1C(N)=O)[C@@H](C)O)C(C)C)[C@@H](C)O)[C@@H](C)O [[(LeuAlaSerAsnLeuSerThr)2 -Lys^7, Leu^8]-eCT(7-32)] (I: H-LASNLSTKLLGKLSQELHKLQTYPRTDVGAGTP-NH2 / II: H-LASNLST; amide I:8-II:C) | 0.64 | 0.82 | 1.84 | 2.64 | 3.19 | – | – | – | – | – | – |
| CC[C@H](C)[C@H](NC(=O)[C@H](C)NC(=O)[C@@H](NC(=O)[C@H](CCC(N)=O)NC(=O)[C@@H]1CCCN1C(=O)[C@H](Cc1ccccc1)NC(=O)[C@@H](NC(=O)[C@H](Cc1c[nH]cn1)NC(=O)[C@H](Cc1ccccc1)NC(=O)[C@H](CCCCN)NC(=O)[C@H](CC(N)=O)NC(=O)[C@H](CC(C)C)NC(=O)[C@H](CC(=O)O)NC(=O)[C@H](CCC(N)=O)NC(=O)[C@@H](NC(=O)[C@H](CC(C)C)NC(=O)[C@@H](NC(=O)CNC(=O)[C@H](CC(C)C)NC(=O)[C@H](CC(C)C)NC(=O)[C@@H]1CSSC[C@H](N)C(=O)NCC(=O)N[C@@H](CC(N)=O)C(=O)N[C@@H](CC(C)C)C(=O)N[C@@H](CO)C(=O)N[C@@H]([C@@H](C)O)C(=O)N1)[C@@H](C)O)[C@@H](C)O)[C@@H](C)O)[C@@H](C)O)C(=O)NCC(=O)N[C@H](C(=O)NCC(=O)N[C@@H](C)C(=O)N1CCC[C@H]1C(N)=O)C(C)C [[Leu-8,12,16]-hCT, [Leu^8,12,16]-hCT] (H-CGNLSTCLLGTLTQDLNKFHTFPQTAIGVGAP-NH2; disulfide 1-7) | – | – | 0.03 | – | 1.92 | – | 0.92 | 2.12 | 3.05 mg/dL and 2.00 mg/dL | 1.72 | – |
| CC[C@H](C)[C@H](NC(=O)[C@H](C)NC(=O)[C@@H](NC(=O)[C@H](CCC(N)=O)NC(=O)[C@@H]1CCCN1C(=O)[C@H](Cc1ccccc1)NC(=O)[C@@H](NC(=O)[C@H](Cc1c[nH]cn1)NC(=O)[C@H](Cc1ccccc1)NC(=O)[C@H](CCCCN)NC(=O)[C@H](CC(N)=O)NC(=O)[C@H](Cc1ccccc1)NC(=O)[C@H](CC(=O)O)NC(=O)[C@H](CCC(N)=O)NC(=O)[C@@H](NC(=O)[C@H](CC(C)C)NC(=O)[C@@H](NC(=O)CNC(=O)[C@H](CC(C)C)NC(=O)[C@H](CC(C)C)NC(=O)[C@@H]1CSSC[C@H](N)C(=O)NCC(=O)N[C@@H](CC(N)=O)C(=O)N[C@@H](CC(C)C)C(=O)N[C@@H](CO)C(=O)N[C@@H]([C@@H](C)O)C(=O)N1)[C@@H](C)O)[C@@H](C)O)[C@@H](C)O)[C@@H](C)O)C(=O)NCC(=O)N[C@H](C(=O)NCC(=O)N[C@@H](C)C(=O)N1CCC[C@H]1C(N)=O)C(C)C [[Leu-8,12]-hCT] (H-CGNLSTCLLGTLTQDFNKFHTFPQTAIGVGAP-NH2; disulfide 1-7) | – | – | 0.37 | – | 2.05 | – | 1.17 | 2.13 | 2.81 mg/dL | – | 1.98 |
